Assay results: article PMC4336329 (PLoS ONE, 2015)
Hit rate of the full screen: of about 310,000 compounds, about 2,200 (0.71%) showed an effect of 50% or more. The effect is printed as a negative number. The list shows a part of the results.

The compounds below were run against human ether-à-go-go-related gene (hERG) potassium channel (human, UniProt Q12809) (assay: primary screen, population patch clamp on CHO cells stably expressing hERG).
Chain of human ether-à-go-go-related gene (hERG) potassium channel (Q12809 whole entry, looked up): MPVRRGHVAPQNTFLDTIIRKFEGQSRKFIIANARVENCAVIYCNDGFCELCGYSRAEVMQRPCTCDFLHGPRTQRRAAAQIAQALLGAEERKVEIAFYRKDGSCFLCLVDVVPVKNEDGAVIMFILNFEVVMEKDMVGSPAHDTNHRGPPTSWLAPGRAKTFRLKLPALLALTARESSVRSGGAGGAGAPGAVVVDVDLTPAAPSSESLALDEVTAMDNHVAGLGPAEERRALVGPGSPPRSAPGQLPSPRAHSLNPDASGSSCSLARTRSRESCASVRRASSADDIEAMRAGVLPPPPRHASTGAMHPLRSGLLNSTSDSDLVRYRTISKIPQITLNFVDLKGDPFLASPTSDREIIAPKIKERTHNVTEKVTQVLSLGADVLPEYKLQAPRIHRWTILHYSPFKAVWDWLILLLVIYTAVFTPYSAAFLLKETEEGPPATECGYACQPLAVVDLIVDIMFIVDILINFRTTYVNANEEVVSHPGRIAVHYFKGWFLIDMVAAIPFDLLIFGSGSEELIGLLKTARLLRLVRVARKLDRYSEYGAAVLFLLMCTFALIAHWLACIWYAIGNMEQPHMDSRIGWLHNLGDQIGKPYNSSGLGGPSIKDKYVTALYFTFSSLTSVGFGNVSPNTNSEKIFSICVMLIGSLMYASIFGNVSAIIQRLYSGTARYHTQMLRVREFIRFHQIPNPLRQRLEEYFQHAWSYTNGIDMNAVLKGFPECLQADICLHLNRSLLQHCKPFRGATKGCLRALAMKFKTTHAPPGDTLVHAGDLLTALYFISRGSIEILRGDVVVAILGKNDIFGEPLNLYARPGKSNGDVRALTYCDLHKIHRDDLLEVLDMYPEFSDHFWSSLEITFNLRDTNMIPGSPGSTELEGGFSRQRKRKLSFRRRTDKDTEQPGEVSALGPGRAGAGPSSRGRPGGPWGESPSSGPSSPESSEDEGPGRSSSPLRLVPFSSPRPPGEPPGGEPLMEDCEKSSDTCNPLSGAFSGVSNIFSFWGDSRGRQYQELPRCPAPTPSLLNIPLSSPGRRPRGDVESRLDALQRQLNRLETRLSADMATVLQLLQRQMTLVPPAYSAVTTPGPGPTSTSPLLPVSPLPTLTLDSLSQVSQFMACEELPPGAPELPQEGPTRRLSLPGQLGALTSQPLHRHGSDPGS

Structure (SMILES)	hERG current change (%, negative = inhibition) at 1uM [%]
CC1=CC(C)(C)NC(=S)N1NC(=O)c1ccccc1Cl	2.9
Cc1ccc2cccc(OCC(=O)c3cc(C)n(Cc4ccco4)c3C)c2n1	14.7
c1ccc(COC2CCCN(Cc3nc(Cc4ccccc4)no3)C2)cc1 (stereo not shown)	6.04
CCc1nc(SCC(=O)Nc2cc(OC)ccc2OC)c2c(C)c(C)sc2n1	6
COc1nc(Nc2ccc(C(C)C)cc2)nc(OC)n1	4.06
CCOC(=O)N1CCC(NC(=O)Cn2cc3c(n2)CCCCC3)CC1	12.8
C/C(=N\NC(N)=S)c1ccncc1	9.74
Cc1ccsc1/C=N/NC(=O)CC(=O)NCC(C)C	8.47
CCC(C)c1c(O)nc(SCC(=O)N2CCCCCC2)[nH]c1=O (stereo not shown)	17.1
CC(=O)O[C@H](COc1c2ccoc2cc2oc(=O)ccc12)C(C)(C)O.O	2.66
O=C(/C=C/c1ccccc1)NC1CCS(=O)(=O)C1 (stereo not shown)	16.8
CC(C)CCN1CCN(CCCn2cccn2)CC1CCO (stereo not shown)	4
CCC(CC)C(=O)Nc1nnc(CCc2ccccc2)s1	16.2
Cc1nc2ccccc2c(=O)n1-c1ccc(Cl)cc1[N+](=O)[O-]	13.5
COc1ccc(N2CCN(CCCNC(=O)C(=O)c3c(C)[nH]c4ccccc34)CC2)cc1	-2.09
COc1cccc(OC)c1C(=O)Nc1cccc(-c2ccc3nncn3n2)c1	11.8
O=C(NCc1cccnc1)/C(=C/c1ccc(Cl)cc1)NC(=O)c1ccccc1	-60.8
OC/C(Br)=C(\Br)CO	9.04
COC(=O)C1=C(N)Oc2cc(C)[nH]c(=O)c2C1c1ccccc1OC (stereo not shown)	9.49
CNc1nnc(Sc2ncccc2[N+](=O)[O-])s1	5.03
COc1ccc2nc3oc(C(=O)N4CCN(c5cccc(C(F)(F)F)c5)CC4)cc3cc2c1	11.4
COc1ccc(/C(O)=C2/C(=O)C(=O)N(CCN3CCOCC3)C2c2ccccn2)cc1OC (stereo not shown)	2.2
CC(C(=O)Nc1ccc(C(N)=O)cc1)N1C(=O)c2ccccc2S1(=O)=O (stereo not shown)	6.21

Structure (SMILES)	hERG current change (%, negative = inhibition) at 1uM [%]
COc1ccc(/C=N/NC(=O)c2nc(-c3ccccc3)cc(-c3ccccc3)n2)cc1	11.8
O=C(CCNC(=O)c1ccc(Br)cc1)NCCCc1ccccc1	8.93
CCCN(C(=O)CSCC(=O)Nc1cccc(C)c1)c1c(N)n(Cc2ccccc2)c(=O)[nH]c1=O	5.16
Nc1ccc(Sc2ccc([N+](=O)[O-])cc2)cc1	4.81
CC1=C(C(=O)Nc2ccccn2)C(c2ccc(N(C)C)cc2)n2ncnc2N1 (stereo not shown)	-39.1
CCOC(=O)c1cnc(-n2nc(C)cc2C)nc1N1CC(C)OC(C)C1 (stereo not shown)	0.965
CCNC(=O)COC(=O)c1ccc(-n2nc(C)cc2C)cc1	-1.37
Cc1ccc2nc(NS(C)(=O)=O)sc2c1	16.1
Cc1ccc(C(=O)NC2CCCC(C)C2C)cc1S(=O)(=O)N1CCCCC1 (stereo not shown)	-1.19
O=C(Nc1ccccc1C(=O)O)c1cccc(S(=O)(=O)Nc2ccc(Br)cc2)c1	15.2
O=C(C1CCCO1)N1CCc2ccccc21 (stereo not shown)	22.1
CCOC(=O)c1c(C)[nH]c(C)c1S(=O)(=O)NCCc1ccco1	6.29
Cc1cc(C)n(-c2ccc(C(=O)OCC(=O)c3ccc(Br)s3)cc2)n1	7.91
CC1=NN(c2nc(C)cc(C)n2)C(=O)C1CCC(C)C (stereo not shown)	3.35
Cc1cccc(C)c1NC(=O)c1sccc1SCc1cccc(C(F)(F)F)c1	5.2
O=C(Nc1cccc2ccccc12)N1CCOCC1	16.3
Cc1sc2nc(SCC(=O)C(C)(C)C)n(Cc3ccco3)c(=O)c2c1C	19.2
O=C1NC(=S)CN1c1ccccc1	13
COc1ccc(NC(C)(C)c2nnnn2-c2c(C)cccc2C)cc1	11.3
Cc1ccnc(NC(=O)Nc2cccc(F)c2)n1	6.95
COc1cc(/C=C/C(=O)OCC(=O)N2CCOCC2)ccc1OCC#N	12
Nc1ncnc(Oc2cccc(C(F)(F)F)c2)c1[N+](=O)[O-]	3.26
CN1CCN(c2nc(-c3cc4ccccc4o3)cs2)CC1	4.08
